Among all 410,000 compounds or so, about 260 (0.063%) were called active. This list was built around the results that the source calls inconclusive (neither active nor inactive); the mix of calls is not that of the screen. Calls come from the whole dose curve; as a rule, active = well fitted activation curve with a large enough effect; inconclusive = small, poorly fitted or top-dose-only effect; inactive = no such curve, though single readings can be large or run the other way. Potencies of inconclusive entries are left out as doubtful fits.
Assay: qHTS for compounds that reverse cellular toxicity of Amyloid beta (A-beta) peptide in yeast: Primary Screen; note: nearly all actives have a fitted effect of over 55% in size
Conditions: yeast expressing A-beta42, growth rescue, OD600, 48 h; growth rescue: at 46.1 µM (top of the series), 0% DMSO, 100% iron-clioquinol control
In short: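 Growth rescue measured by 600 nm absorbance after 48 h yeast culture at 30 C with compound. Values normalized between DMSO and an equimolar ferric chloride plus clioquinol control.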
Potency is the fitted concentration of half-maximal effect; tags give direction and shape of the fitted curve.

| SMILES | Potency |
| --- | --- |
| CCc1ccc(C2c3[nH]c4ccccc4c3CCN2C(=O)c2cc(C)nn2C)cc1 (centres undefined) | inconclusive [activator, single point] |
| CCOC(=O)c1c(S(=O)(=O)N2CCCC(C(=O)NCc3ccc(Cl)cc3)C2)c(C)n(C)c1C (centres undefined) | inactive |
| O=[N+]([O-])c1cc(Cl)ccc1N1CCOCC1 | inactive |
| Cc1ccc(CC(C)(O)CC(C)(O)Cc2ccc(C)cc2)cc1 (centres undefined) | inconclusive [activator, partial curve] |
| O=C(COc1ccccc1)Nc1nnc(-c2ccc3c(c2)CCCC3)o1 | inconclusive [activator, full curve, poor fit] |
| Cc1cccc(Cn2c(CNS(=O)(=O)c3ccc4c(c3)CCCC4)nc3cccnc32)c1 | inactive |
| Cc1cc(C)cc(NS(=O)(=O)c2ccc(Oc3ncc(C(F)(F)F)cc3Cl)cc2)c1 | inconclusive [activator, single point] |
| COc1ccc(CCCc2nnc(SCC(=O)Nc3ncc(C)s3)o2)cc1 | inconclusive [activator, single point] |
| COc1ccccc1NC(=S)NC1CCCCCC1 | inconclusive [activator, partial curve, poor fit] |
| CN1CCN(NC(=O)c2cn(-c3ccccc3)nc2-c2cccc(Br)c2)CC1 | inconclusive [activator, full curve] |
| COc1ccccc1-c1cc2nc(C)c(CCC(=O)Nc3ccc(Br)c(C)c3)c(C)n2n1 | inconclusive [activator, partial curve, poor fit] |
| O=C(CNS(=O)(=O)c1ccccc1)NNC(=O)C(Cl)Cl | inactive |
| CCCCN(CC)S(=O)(=O)N1CCC(C(=O)NCc2ccc(F)cc2)CC1 | inconclusive [activator, single point] |
| O=c1cc(COn2nnc3ccc(C(F)(F)F)cc32)nc2sccn12 | inactive |
| CCc1cc(-c2n[nH]c(=S)n2-c2cccc(C)c2)cs1 | inconclusive [activator, partial curve] |
| CCN(CC)c1ccc(/C=N/NC(=S)NCc2ccccc2)cc1 | inconclusive [activator, single point] |
| COc1ccccc1CN1CCN(Cc2ccc3ccccc3c2)CC1 | inactive |
| COC(=O)Cn1c(=NC(=O)c2ccc(S(=O)(=O)N3CCc4ccccc4C3)cc2)sc2cc(OC)ccc21 | inactive |
| COc1ccc(C(O)c2nc(-c3ccccc3)cs2)cc1 (centres undefined) | inconclusive [activator, partial curve] |

Source: PubChem BioAssay AID1347071 (National Center for Advancing Translational Sciences (NCATS), 2019)
